Measured values: the antibiotic and cytotoxicity screens of Wong et al. (2023)
This is one part of the list.

Tested on: HSkMC (human skeletal muscle cells)
Assay: cytotoxicity call (relative viability < 0.9)
Conditions: 10 µM

**Q.** With `COc1cc(CO)cc(I)c1O[C@H]1C=C(C(=O)NCCO)C[C@@H](NC[C@@H]2CCCO2)[C@@H]1O` as the compound, how does the cytotoxicity call read?
**A.** Its cytotoxicity call is “inactive”.

**Q.** For `CC(=O)N1CCC(N)CC1`, which cytotoxicity call is on record?
**A.** The cytotoxicity call was “inactive”.

**Q.** With `COc1ccc(CNC(=O)c2cc3c(c(-c4cccc(-c5ccc(C#N)cc5)c4)n2)[C@H](CCO)N([S@@](=O)C(C)(C)C)C3)cc1` as the compound, how does the cytotoxicity call read?
**A.** Its cytotoxicity call is “inactive”.

**Q.** How did the cytotoxicity call turn out when `COc1cc(OC)cc(C(=O)OCCN2CCCN(CCOC(=O)c3cc(OC)cc(OC)c3)CC2)c1` was run?
**A.** Its cytotoxicity call is “inactive”.

**Q.** `COc1ccc(-c2csc(C(C#N)=C3CCCCC3)n2)cc1` was tested. Which cytotoxicity call did it give?
**A.** The cytotoxicity call was “inactive”.

**Q.** `C[C@@H]1CN([C@H](C)CO)C(=O)c2cc(NC(=O)CCC(F)(F)F)ccc2O[C@H]1CN(C)S(=O)(=O)c1cn(C)cn1` was tested. Which cytotoxicity call did it give?
**A.** Its cytotoxicity call is “inactive”.

**Q.** Which cytotoxicity call does the source give for `C[C@@H]1CN([C@@H](C)CO)C(=O)Cc2cc(NC(=O)CCC(F)(F)F)ccc2O[C@@H]1CN(C)S(C)(=O)=O` here?
**A.** Its cytotoxicity call is “inactive”.

**Q.** `CC(=O)Nc1c(C)[nH]c2ncnn2c1=O` was tested. Which cytotoxicity call did it give?
**A.** The cytotoxicity call was “inactive”.

**Q.** How did the cytotoxicity call turn out when `C[C@@H]1CN([C@@H](C)CO)C(=O)c2cc(NS(C)(=O)=O)ccc2O[C@@H](C)CCCCO[C@@H]1CN(C)S(=O)(=O)c1ccc(F)cc1` was run?
**A.** Its cytotoxicity call is “inactive”.

**Q.** For `Cn1nccc1-c1cccc(CN)c1`, which cytotoxicity call is on record?
**A.** Its cytotoxicity call is “inactive”.

**Q.** For `O=C(C[C@H]1CC[C@@H](NC(=O)Nc2ccc3c(c2)OCO3)[C@H](CO)O1)NCCCN1CCOCC1`, which cytotoxicity call is on record?
**A.** The cytotoxicity call was “inactive”.

**Q.** With `Oc1cc(O)cc(O)c1` as the compound, how does the cytotoxicity call read?
**A.** The cytotoxicity call was “inactive”.

**Q.** Which cytotoxicity call does the source give for `C[C@@H]1CN([C@@H](C)CO)C(=O)CCCn2cc(nn2)CO[C@@H]1CN(C)S(=O)(=O)c1ccc(Cl)cc1` here?
**A.** Its cytotoxicity call is “inactive”.

**Q.** `NCc1cccc(-c2nccs2)c1` was tested. Which cytotoxicity call did it give?
**A.** The cytotoxicity call was “inactive”.

**Q.** `CCO[C@H]1OC(C(=O)N2CCN(Cc3ccccc3)CC2)=C[C@@H](c2csc3ccccc23)[C@@H]1CCCOC(=O)NCCCCCC(=O)NO` was tested. Which cytotoxicity call did it give?
**A.** Its cytotoxicity call is “inactive”.

**Q.** For `O=C(c1cccs1)N1c2ccccc2Sc2ccccc21`, which cytotoxicity call is on record?
**A.** The cytotoxicity call was “inactive”.

**Q.** How did the cytotoxicity call turn out when `C[C@H]1CN([C@@H](C)CO)C(=O)c2ccccc2-c2ccccc2CO[C@H]1CN(C)C(=O)Nc1cccc(Cl)c1Cl` was run?
**A.** Its cytotoxicity call is “inactive”.

**Q.** Which cytotoxicity call does the source give for `NCc1nc(-c2ccccc2)no1` here?
**A.** Its cytotoxicity call is “inactive”.

**Q.** With `Cc1ccc(S(=O)(=O)Nc2ccc3c(c2)C(=O)N([C@H](C)CO)C[C@H](C)[C@H](CN(C)C(=O)Cc2ccccc2)OCCCC[C@@H](C)O3)cc1` as the compound, how does the cytotoxicity call read?
**A.** The cytotoxicity call was “inactive”.

**Q.** How did the cytotoxicity call turn out when `NC[C@H]1CN(Cc2ccc(F)cc2)CCO1` was run?
**A.** Its cytotoxicity call is “inactive”.

**Q.** With `C[C@H]1CN([C@@H](C)CO)S(=O)(=O)c2ccc(C#Cc3cccc(F)c3)cc2O[C@H]1CN(C)CC1CC1` as the compound, how does the cytotoxicity call read?
**A.** The cytotoxicity call was “inactive”.

**Q.** For `CN(C)C(=O)C[C@H]1CC[C@@H](NC(=O)C2CC2)[C@H](CO)O1`, which cytotoxicity call is on record?
**A.** Its cytotoxicity call is “inactive”.

**Q.** For `C[C@H]1CCCCO[C@H](CN(C)S(C)(=O)=O)[C@@H](C)CN([C@@H](C)CO)C(=O)c2cc(N(C)C)ccc2O1`, which cytotoxicity call is on record?
**A.** Its cytotoxicity call is “inactive”.

**Q.** Which cytotoxicity call does the source give for `COc1ccc(S(=O)(=O)Nc2cccc3c2O[C@@H](CN(C)Cc2ccc(Cl)c(Cl)c2)[C@H](C)CN([C@H](C)CO)C3=O)cc1` here?
**A.** Its cytotoxicity call is “inactive”.

**Q.** Which cytotoxicity call does the source give for `CC#CCO[Si](C#CCCCCCC)(C(C)C)C(C)C` here?
**A.** Its cytotoxicity call is “inactive”.

**Q.** With `C[C@]1(C(=O)NCC(F)(F)F)c2ccccc2C(=O)N(Cc2cc(C(F)(F)F)cc(C(F)(F)F)c2)[C@H]1c1ccc(CO)cc1` as the compound, how does the cytotoxicity call read?
**A.** Its cytotoxicity call is “inactive”.

**Q.** Which cytotoxicity call does the source give for `C[C@H](CO)N1C[C@H](C)[C@H](CN(C)S(=O)(=O)c2ccc(F)cc2)Oc2ccc(NS(=O)(=O)c3cn(C)cn3)cc2C1=O` here?
**A.** Its cytotoxicity call is “inactive”.

**Q.** How did the cytotoxicity call turn out when `C[C@H]1CN([C@@H](C)CO)C(=O)Cc2cc(NC(=O)Nc3ccc(F)cc3)ccc2O[C@H]1CN(C)Cc1ccc(Cl)c(Cl)c1` was run?
**A.** The cytotoxicity call was “active”.

**Q.** Which cytotoxicity call does the source give for `C[C@@H]1CCCCO[C@H](CN(C)S(=O)(=O)c2cccs2)[C@@H](C)CN([C@@H](C)CO)C(=O)c2cc(NC(=O)Nc3ccc4c(c3)OCO4)ccc2O1` here?
**A.** The cytotoxicity call was “inactive”.

**Q.** How did the cytotoxicity call turn out when `C[C@H]1CN([C@@H](C)CO)C(=O)c2cc(NS(=O)(=O)c3cccs3)ccc2O[C@H]1CN(C)S(C)(=O)=O` was run?
**A.** The cytotoxicity call was “inactive”.

**Q.** With `COc1ccc(NC(=O)Nc2cccc3c2O[C@H](CN(C)C(=O)Nc2cccc4ccccc24)[C@@H](C)CN([C@H](C)CO)C3=O)cc1` as the compound, how does the cytotoxicity call read?
**A.** The cytotoxicity call was “inactive”.

**Q.** How did the cytotoxicity call turn out when `Cc1ccc(S(=O)(=O)Nc2ccc3c(c2)C(=O)N([C@H](C)CO)C[C@H](C)[C@@H](CN(C)C(=O)Nc2c(C)noc2C)OCCCC[C@@H](C)O3)cc1` was run?
**A.** Its cytotoxicity call is “inactive”.

**Q.** For `Nc1nc2nc[nH]c2c(=S)[nH]1`, which cytotoxicity call is on record?
**A.** Its cytotoxicity call is “inactive”.

**Q.** With `CO[C@@H]1CN(C)C(=O)c2cc(NC(=O)Nc3ccccc3)ccc2OC[C@@H](C)N(C(=O)CN(C)C)C[C@H]1C` as the compound, how does the cytotoxicity call read?
**A.** The cytotoxicity call was “inactive”.

**Q.** Which cytotoxicity call does the source give for `C[C@@H]1CN([C@H](C)CO)C(=O)c2cccc(NC(=O)Nc3ccc(F)cc3)c2O[C@H]1CN(C)S(=O)(=O)c1cn(C)cn1` here?
**A.** Its cytotoxicity call is “inactive”.

**Q.** How did the cytotoxicity call turn out when `O=c1cc(-c2ccccc2)ss1` was run?
**A.** Its cytotoxicity call is “inactive”.

**Q.** How did the cytotoxicity call turn out when `C[C@H](CO)N1C[C@H](C)[C@H](CN(C)C(=O)Nc2ccc(F)cc2)Oc2c(NC(=O)c3cnccn3)cccc2C1=O` was run?
**A.** Its cytotoxicity call is “inactive”.

**Q.** Which cytotoxicity call does the source give for `COc1cccc(C#Cc2ccc3c(c2)O[C@H](CN(C)S(=O)(=O)c2ccccc2F)[C@@H](C)CN([C@@H](C)CO)S3(=O)=O)c1` here?
**A.** The cytotoxicity call was “inactive”.

**Q.** `C[C@@H]1CN([C@@H](C)CO)C(=O)c2cccc(NS(=O)(=O)c3cn(C)cn3)c2O[C@@H]1CN(C)CC1CCCCC1` was tested. Which cytotoxicity call did it give?
**A.** The cytotoxicity call was “inactive”.

**Q.** For `COc1ccccc1CN1C[C@@H](C)[C@H](OC)CN(C)C(=O)c2ccc(NC(=O)Nc3ccccc3OC)cc2OC[C@H]1C`, which cytotoxicity call is on record?
**A.** Its cytotoxicity call is “inactive”.
